For 84 compounds, TGI and GI50 results are on record in PubChem BioAssay (NCI).

Several values for one entry are separate records, joined by “and”; a condition that tells them apart may be missing. Equal entries are not always repeated.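 All cell lines were grown in 96-well plates and treated with compound for 48 hours. GI50 is the concentration that inhibits growth by half. TGI denotes the concentration required for complete inhibition of growth.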

The subject of the assay is NCI-H322M lung. Description: growth of human tumour cells (NCI), 48 h.
The compound `O=C(C=Nc1ccccc1S)c1ccco1` showed a TGI of 15.3 µM.

With `Cc1ccc(-c2nc(/C=N/Nc3cc(C)nc4ccc(Br)cc34)c(C)o2)cc1`, the GI50 is 1.93 µM and the TGI was 3.92 µM.

`CN1N=C2c3ccccc3OC(c3ccccc3)[C@H]2C1c1ccccc1` (some centres not stated): the TGI was over 100 µM.

On to `CC(C)c1cccc(C(C)C)c1NC(=O)C(=O)C1CCC2=C(Sc3ccccc3N2)C1=O` (configuration not stated), for which the TGI is over 100 µM.

Compound `CN(CCNC(=O)c1nn(-c2ccc(Cl)cc2Cl)c2c1Cc1ccccc1-2)CCNC(=O)c1nn(-c2ccc(Cl)cc2Cl)c2c1Cc1ccccc1-2` displayed a TGI of over 100 µM.

As for `C1=CCC[C@@H]2CN3CCCC/C=C\CCCC[C@H]4C[C@H](CN(CCCCCCCC1)C4)[C@H]2CC3`, the TGI turned out to be 19.4 µM.

`CN/N=C(\C(=O)Nc1ccc(C(F)(F)F)cc1[N+](=O)[O-])C(c1cnc2ccc([N+](=O)[O-])cc2n1)[N+](=O)[O-]` (configuration not stated) showed a TGI of over 100 µM.

For `CN(C)/C=C/c1c2c(nc3ccccc13)C(=O)c1cccnc1C2=O`, the TGI is 1.87 µM.

`O=C(O[C@H]1[C@@H]2C=CO[C@@H](OC3OC(CO)C(O)C(O)C3O)[C@@H]2[C@@]2(CO)O[C@@H]12)c1ccc(O)c(O)c1` (some centres not stated) displayed a TGI of over 100 µM.

With `CC(=O)Nn1cnc(C(=N)C#N)c1N`, the TGI was over 100 µM.

`COc1ccccc1NC(=O)C1=C(C)NC(C)=C(C(=O)Nc2ccccc2OC)C1c1ccccc1Cl` came in with a TGI of over 100 µM.

Consider `COC(=O)c1sc2c(=O)c(C(=O)OC)c(C(=O)OC)sc2c(=O)c1C(=O)OC`, for which the TGI is over 100 µM.

In turn, `C[C@]12CCc3nonc3C1CC[C@@H]1C2CC[C@@]2(C)C1CC[C@@H]2O` (some centres not stated) registered a TGI of over 100 µM.

`CSc1ccc2c(cc1=O)C(NC(=O)c1ccccc1)CCc1cc(O)c(O)c(O)c1-2` (configuration not stated) yielded a TGI of 53.5 µM.

For `COc1ccc(-c2oc3c(OC)c(OC)c(OC)c(O)c3c(=O)c2OC)cc1O`, the GI50 is under 0.01 µM and the TGI was determined as 76.8 µM.

Turning to `O=C(Nc1cccc(C(F)(F)F)c1)c1ccc(NC2=C(Cl)C(=O)N(Cc3ccccc3)C2=O)cc1`, the GI50 is 14.7 µM and the TGI amounted to 30.4 µM.

As for `Cc1ccc2[nH]c(O)c(N=Nc3ccccc3[N+](=O)[O-])c2c1`, the TGI is over 100 µM.

Turning to `CO/N=C(/C(=O)Nc1c[n+](CC(=O)[O-])cs1)c1csc(N)n1`, the TGI is over 100 µM.

Regarding `CCc1[nH]nc(C(N)=O)c1N=NN(C)C`, the TGI is over 100 µM.

`Cc1nc(C)c(N2CCN(S(N)(=O)=O)CC2)c(=O)[nH]1` gave a TGI of over 100 µM.

`CCCCCCCC(=O)OCC1OC(n2cc(F)c(=O)[nH]c2=O)C(N)C(O)C1O` (configuration not stated) had a TGI of over 100 µM.

Compound `CCOc1cc(C2SCC(=O)N2c2ccc3c(c2)Oc2c(Cl)c4c(c(Cl)c2=N3)Oc2cc(N3C(=O)CSC3c3ccc(O)c(OCC)c3)ccc2N=4)ccc1O` (configuration not stated) came in with a TGI of over 100 µM.

On to `O=[N+]([O-])c1cc(I)cc(/C=N/NS(=O)(=O)c2ccc(Cl)cc2)c1O`, for which the TGI stood at 53.4 µM.

In turn, `CCOC(=O)C(NC(=O)c1ccccc1)(c1ccc(S(=O)(=O)Nc2onc(C)c2C)cc1)C(F)(F)F` (configuration not stated) registered a TGI of over 100 µM.

Compound `N#CC1(N2CCCC2)CCC2(CC1)OCCO2` returned a TGI of over 100 µM.

`O=Cc1ccccc1CCn1c(=O)c2cc3c(=O)n(CCc4ccccc4C=O)c(=O)c3cc2c1=O` showed a TGI of over 100 µM.

As to `CC(=O)OC1=C2CC[C@@H]3C(CC[C@@]4(C)C3CC[C@@H]4OC(C)=O)[C@@]2(C)CC(C#N)C1=O` (some centres not stated), the TGI is over 100 µM.

The compound `O=C1OC(c2ccc(Cl)cc2)=N/C1=C\c1ccccc1` gave a TGI of over 100 µM.

The compound `C=CCOc1ccc(N)c([N+](=O)[O-])c1` had a TGI of over 100 µM.

`COn1oc(=O)c2ccccc21` had a TGI of over 100 µM.

For the compound `O=C(c1ccc2ccccc2c1)c1c(C(F)(F)F)n([O-])c2cc(C(F)(F)F)ccc2[n+]1=O`, the GI50 was 1.86 µM and the TGI was 3.9 µM.

On to `O=c1oc2ccc(Cl)cc2c(=O)n1-c1ccc(F)cc1F`, for which the GI50 was 2.24 µM and the TGI was over 100 µM.

For the compound `CC(C)=Cc1cccc2[nH]c(O)c(N=Nc3ccc(S(N)(=O)=O)cc3)c12`, the GI50 was over 15.9 µM and the TGI is over 25 µM.

Compound `Brc1ccc(C=NC23CC4CC(CC(C4)C2)C3)cc1` yielded a TGI of over 100 µM.

With `CN(/N=C/c1ccccc1O)c1ccc2ccccc2n1`, the TGI amounted to 46.6 µM.

`O=S(=O)(O)n1ccnc1` (tested in a mixture with another compound) came in with a TGI of over 100 µM.

In turn, `CCc1ccc(Cc2ccc(CC)c(NC(=O)C(=O)C3NC(=S)NC3=O)c2CC)c(CC)c1NC(=O)C(=O)C1NC(=S)NC1=O` (configuration not stated) registered a TGI of over 100 µM.

On to `O=C(Nc1n[nH]c2nc(-c3ccc(O)cc3)c(Br)cc12)C1CC1`, for which the GI50 is 5.54 µM and the TGI was 19.3 µM.

`CC(C)(C)OC(=O)N1CC(C)(C)N2C(=O)C3(CCCO3)C12` (configuration not stated) displayed a TGI of over 100 µM.

As to `CCOc1ccccc1Nc1ccc(N)cc1S(=O)(=O)O`, the TGI was over 100 µM.

Take `O=c1oc2cc(O)ccc2c2oc3cc(O)ccc3c12`: the TGI is over 85.5 µM.

On to `C=CCCCN1CCCCC1=S`, for which the TGI was over 100 µM.

The compound `CC(C)CNCCc1ccccn1` returned a TGI of over 100 µM.

Regarding `N#Cc1ccc([N+](=O)[O-])cc1NC(N)=S`, the TGI is over 100 µM.

In the case of `O=C(O)CN1C(=O)CN=C(c2ccccn2)c2cc(Cl)ccc21`, the TGI is over 100 µM.

`CC(=O)OC12CC[N+]3(C)CCCCC3C1=Nc1ccccc12` (configuration not stated) came in with a TGI of over 100 µM.

With `C#Cc1cccc(NC(=O)c2cccc(NC(=O)CCl)c2)c1`, the GI50 was 71.4 µM and the TGI is over 82.5 µM.

As for `FC(F)(F)c1nc(SCc2ccc(Cl)cc2)n[nH]1`, the TGI is over 100 µM.

The compound `O=C1CCCCN1` gave a TGI of over 1120 µM.

On to `CC(=O)NCc1c(C(N)=O)ncn1Cc1ccccc1`, for which the TGI was over 100 µM.

As to `CCN(CC)CCn1c(=O)c2cc(OC)c(OC)cc2c2ccc3cc4c(cc3c21)OCO4`, the GI50 is 0.4 µM and the TGI was determined as 23 µM.

With `CN[C@@H](Cc1cccc2ccccc12)C(=O)N[C@@H](CC(C)C)B(O)O`, the GI50 was 0.124 µM; the TGI is 0.313 µM and 0.194 µM.

`N#CC1(C#N)[C@@H]2CCC=C(Sc3ccccc3)[C@@H]21` registered a TGI of 40.1 µM.

As for `COc1cccc(C=O)c1[O-].COc1cccc(C=O)c1[O-].[Zn+2]`, the TGI is over 100 µM.

`CN=C1CN=C(OP(=O)(N2CCOCC2)N2CCOCC2)c2cc(Cl)ccc2N1` registered a TGI of over 100 µM.

For the compound `CC1=C(SCCO)C(=O)c2ccccc2C1=O`, the TGI is 29.1 µM.

For the compound `C1C[OH+]CCNCC[OH+]CC[OH+]CCN1.N.[Cl-].[Pt+4]`, the GI50 was 52.8 µM and the TGI was over 100 µM.

Consider `COc1cc2c3c(n(CCCn4cncn4)c(=O)c2cc1OC)-c1cc2c(cc1C3=O)OCO2`, for which the GI50 is over 64.9 µM and the TGI is over 100 µM.

Consider `Nc1ncnc2c1ncn2[C@@H]1O[C@H](COP(=O)(O)OP(=O)(O)OC[C@H]2O[C@@H](OCCCO)[C@H](O)[C@@H]2O)[C@@H](O)[C@H]1O`, for which the TGI is over 100 µM.

As for `CC1(C)CCc2c(c(N=Nc3ccccc3F)c3ccccc3c2O)O1`, the GI50 was 27.1 µM and the TGI worked out at 88.3 µM.

For the compound `O=C(Nc1cn[nH]c1-c1nc2ccc(CN3CCOCC3)cc2[nH]1)NC1CC1`, the GI50 was 2.78 µM and > 10 µM; the TGI was 14.5 µM and > 10 µM.

In turn, `CC(=O)C1C(=O)C(C(C)=O)C2C3C=CC(C3)C12` (configuration not stated) yielded a TGI of over 100 µM.

As for `CCCCC(OC(=O)c1ccc(N)cc1)C(=O)Nc1nc(CC(=O)OCC)cs1` (configuration not stated), the GI50 is 60.3 µM and the TGI was over 100 µM.

Turning to `O=S(=O)(O)c1cc(S(=O)(=O)O)c2c(N=Nc3ccc(S(=O)(=O)O)c4ccccc34)c(O)ccc2c1`, the TGI is over 100 µM.

The compound `COc1ccc(-c2cc(=O)c3cc(C)c(C)c(C(=O)O)c3o2)cc1` came in with a TGI of over 100 µM.

For `C/C(CC(C)(C)N1CC1)=N\NC(=O)Nc1cccc2ccccc12`, the GI50 was 4.46 µM and the TGI was 18.2 µM.

`O=C(O)c1ccccc1/C=C1/Cc2ccc3c(c2C1=O)CCC3` returned a TGI of over 100 µM.

With `CCC[CH2][Sn]1([CH2]CCC)[O]CC[S]1`, the GI50 is 1.53 µM and the TGI was 2.87 µM.

For `CC[C@H]1CCC/C=C/[C@@H]2C[C@H](O)C[C@H]2[C@H](O)/C=C/C(=O)O1`, the GI50 is 0.0618 µM and the TGI was over 100 µM.

With `CCCS(=O)(=O)Nc1cccc(Nc2ncnc3cc(NC(=O)CCl)ccc23)c1Cl`, the GI50 is 4.92 µM and the TGI was found to be 12.6 µM.

On to `O=C1/C(=C/C=C/c2ccccc2)N=C(c2ccccc2)N1c1ccc(S(=O)(=O)Nc2nccs2)cc1`, for which the TGI was over 100 µM.

Consider `CC1(O)C2(c3ccccc3)CCC[N+]1(C)CC2` (configuration not stated), for which the TGI is over 100 µM.

`O=C1c2cn[nH]c2N=C(Nc2ccccc2)C1N=Cc1ccc([N+](=O)[O-])cc1` (configuration not stated) showed a TGI of over 10 µM.

Compound `CC[C@]1(Cc2ccc(OC)c(OC)c2)C2CC(C(=O)OC)ON2O[C@H](OCc2ccccc2)[C@@H]1OC(C)=O` (some centres not stated) gave a TGI of over 100 µM.

In turn, `COC(=O)CCC(=O)c1ccc2c(c1)CC1(C2)Cc2ccc(C(=O)CCC(=O)OC)cc2C1` showed a TGI of over 100 µM.

Turning to `COc1ccc(/C=C2/SC(=Nc3ccccc3)N(NC(=O)Cc3ccccc3)C2=O)c(OC)c1`, the TGI was over 100 µM.

In turn, `CC(C)C1=CC2=CC[C@@H]3[C@](C)(CCC[C@@]3(C)C(=O)O)[C@H]2CC1` gave a TGI of over 100 µM.

Compound `COc1c(C)c(OC)c(C(=O)CC(C)C)c(OC)c1C` displayed a TGI of over 100 µM.

`CC1=C[C@H]([C@H]2C=C(C)C(C(N)=O)=CN2Cc2c(Cl)cccc2Cl)N(Cc2c(Cl)cccc2Cl)C=C1C(N)=O` came in with a TGI of over 75 µM.

Consider `Cc1c[nH]c(=O)n(Cc2nnc(CCC(=O)c3nc4ccccc4[nH]3)o2)c1=O`, for which the GI50 is 0.856 µM and the TGI was over 100 µM.

On to `O=C(Nc1ccccc1)c1cc(S(=O)(=O)N2CCNC2=O)c(S)cc1Cl`, for which the TGI was over 100 µM.

As for `CC1OC(CC(=O)O)Cc2c1c(O)c1c(O)cc(-c3cc(=O)c4c(=O)c5c(c(=O)c=4c3=O)CC(CC(=O)O)OC5C)c(O)c1c2O` (configuration not stated), the GI50 was 40.2 µM and the TGI is over 100 µM.

`C#CCOC(=O)/C=C/C(=O)Oc1ccc2c(C)cc(=O)oc2c1`: the GI50 was over 100 µM and the TGI was over 100 µM.

On to `CC[O-].CC[O-].O=C([CH-]C(=O)c1ccccc1)CCCCCCC(=O)[CH-]C(=O)c1ccccc1.[Ti+4]`, for which the GI50 is over 100 µM and the TGI is over 100 µM.
